From the supplement of paper PMC11417369
The other results are listed elsewhere or left out.

These sequences were tested on PfHDP1 homeodomain (GST-tagged) (assay: gcPBM binding intensity (ln(normalized median fluorescence intensity)); higher = stronger DNA binding).
Outline: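 GST-tagged P. falciparum DNA-binding domains produced in E. coli were incubated for 1 h on an Agilent 4 × 180k array of primer-extended double-stranded 36-bp intergenic genomic probes with negative controls. Binding intensity is the highest Masliner-normalised natural-log median intensity across replicate spots of either probe orientation, with bound protein detected by Alexa488 anti-GST antibody at 488 nm.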

Compared with “GTATATATGTTTTATACACACATTAAAGGAAATATA [CACACA_site984]”, “CACAAACAGACAAACACACACACACGGACATACATA [CACACA_site6350]” is higher in “gcPBM binding intensity (ln)” value: 6.68 for the first, 6.78 for the second.

Compared with “TATAATATATAAAAATGTACACATAAATATAAGTAG [XGTACX_site665]”, “TTTTTGTATTCTTCTTCTTCCAGACTACATTATGTC [XGTACX_negctrl_site235]” is lower in “gcPBM binding intensity (ln)” value: 6.8 for the first, 6.59 for the second.

Going from “ATATATTTAAAATTGACACACATTTAATGACATTTT [CACACA_site3112]” to “TATATATGGAAAAGAGTCAAAAAGAAAAAAGAAAAA [CACACA_negctrl_site1374]”, the “gcPBM binding intensity (ln)” value falls from 6.26 to 6.08.

First: TATGAAATATTTATACACAGAACTTCATAATTTTCA [TGCATGCA_negctrl_site509]
Second: CATTTTTTGCTTTCAACACACATACAATATATATAA [CACACA_site6127]
The “gcPBM binding intensity (ln)” value of the first is lower: 6.26 for the first, 7 for the second.

First: CTTTATTTTTTATACACACACAATATGTATATATAT [CACACA_site3550]
Second: AAGGATCACGCACAAACACACATATTTATATTTATA [CACACA_site6405]
The “gcPBM binding intensity (ln)” value of the first is lower: 7.24 for the first, 7.35 for the second.

First: TTTTTATTTTTTGAAACACACACAAAAAAAATGATA [CACACA_site8564]
Second: TAAGGATATATATATTCACACACACCGGGAAATATA [CACACA_site8020]
The “gcPBM binding intensity (ln)” value of the first is higher: 6.84 for the first, 6.71 for the second.

First: AAACAAATATATATATGTACTTATAAAAAAAAAAAT [XGTACX_site2211]
Second: TATTTGCAATATTATACACACATTAGATATTGCAAA [CACACA_site7565]
The “gcPBM binding intensity (ln)” value of the first is lower: 6.64 for the first, 9.59 for the second.

First: TAATATATATAACATATACACACGTTCATATATATA [CACACA_site462]
Second: AACAAATTAATTCTAGTGCAGGACGTATTTGTGTAC [GTGCAC_site9907]
The “gcPBM binding intensity (ln)” value of the first is lower: 6.58 for the first, 7.26 for the second.

First: TACAAAATGTTATATCAATATAGATAAAAAAATGAA [XGTACX_negctrl_site285]
Second: AAAAAAAAAAAAAAATGTACATATATAATATTTATA [XGTACX_site5117]
The “gcPBM binding intensity (ln)” value of the first is higher: 6.63 for the first, 6.51 for the second.

Compared with “ATTAAATTAAAATAATGTACTTAATACTTTTGCTTA [XGTACX_site8404]”, “AACAATTTTTAAAGGTGTACAATATGTATATAAGAA [XGTACX_site254]” is higher in “gcPBM binding intensity (ln)” value: 6.17 for the first, 7.09 for the second.

First: AATTTTGAGATGTGGTGTACACAAAATTAGTTAGAC [XGTACX_site7033]
Second: TCAACGATCACTCGGTGTACTATAAATGAGAGAATT [XGTACX_site1820]
The “gcPBM binding intensity (ln)” value of the first is higher: 7.44 for the first, 6.3 for the second.

Compared with “ATATATATATATAAAGGTACACATTTATTAAATATA [XGTACX_site7102]”, “TCTTTAACAAGTTAAACACACATACCTATATACATA [CACACA_site7237]” is lower in “gcPBM binding intensity (ln)” value: 8.85 for the first, 6.47 for the second.

Going from “TGGTGATATACGAAATGTACGCAAATCACAAAATAA [XGTACX_site8836]” to “CGCGTATAACGAAATTGTACAAAAAAAATTAAACAT [XGTACX_site6813]”, the “gcPBM binding intensity (ln)” value rises from 6.2 to 7.06.

Going from “AAATAAAAATTAAAAAAATAGAAACGAATTGAATGC [TGCATGCA_negctrl_site365]” to “ATATATATAAATATATGTACATAAATATATTTGTAA [XGTACX_site6715]”, the “gcPBM binding intensity (ln)” value rises from 6.69 to 6.71.

Going from “AATTAAACTTTGTTTTTGTTTTTTTTTTTTATATTT [CACACA_negctrl_site1316]” to “TTTTTTTTTATAAATACACACGTACGGGTGCATAAC [CACACA_site8444]”, the “gcPBM binding intensity (ln)” value rises from 5.87 to 10.1.

First: ATCATGAAATATATTTGTACACATAATAATATAATA [XGTACX_site8798]
Second: ATTTGGCAGAAACACACACACACACCCACCCACATA [CACACA_site589]
The “gcPBM binding intensity (ln)” value of the first is lower: 6.86 for the first, 6.98 for the second.

Going from “ATATATATATATATATGTACACAGGACAATAATCCT [XGTACX_site6383]” to “TATTAAAAGGTGAGTACACACATATATGTGTATATA [CACACA_site7070]”, the “gcPBM binding intensity (ln)” value falls from 9.31 to 6.94.

Going from “TTTTACTATACTTATGCACACAAGATATATACATAT [CACACA_site2968]” to “TAAAAAAATTCATGCACACGAAATAAAAAGCACCTT [CACACA_site4667]”, the “gcPBM binding intensity (ln)” value falls from 9.66 to 8.88.

Compared with “TTTTTTAAAAGATAATATTTTATTAATGTATTCTCA [GTGCAC_negctrl_site598]”, “AAACATAAATTTTATTGTACATTATATAGAATTTTC [XGTACX_site576]” is higher in “gcPBM binding intensity (ln)” value: 5.7 for the first, 6.29 for the second.

Compared with “TTTTCATTTTTTCGTTGTACATAAATAATATATATT [XGTACX_site856]”, “AATACATACATACATACACACATATATATATATTAT [CACACA_site3575]” is lower in “gcPBM binding intensity (ln)” value: 7.53 for the first, 7.03 for the second.

Compared with “AATCATATTAGTATGGTGCAATATATATATAAATAT [GTGCAC_site9800]”, “GGAATAGTCGGGTGCATACACACCTTAAATATAATA [CACACA_site1081]” is lower in “gcPBM binding intensity (ln)” value: 10.5 for the first, 7.86 for the second.

First: AAAGAAAATTCAATAGTGCATAAAAATATATATGTT [GTGCAC_site9680]
Second: CACATGTATTTATAGGTGCGTAAAAACACTTTATAT [GTGCAC_site9501]
The “gcPBM binding intensity (ln)” value of the first is higher: 8.62 for the first, 6.97 for the second.

Going from “ACTAATTACTATAAAACACACATATATTTATTTATA [CACACA_site7263]” to “TTATAGAAACATTGGTGTACGATATTTACTTCTTTC [XGTACX_site7314]”, the “gcPBM binding intensity (ln)” value falls from 6.72 to 5.91.

Going from “GATAAACCATATATAACACACATATGAATATTGCAA [CACACA_site6735]” to “ATATCATATATAAGTCGTACGATGAATAGAATTTTT [XGTACX_site7586]”, the “gcPBM binding intensity (ln)” value falls from 6.73 to 6.7.

Compared with “CACCCATACAGACATACACACACATATATATTAATA [CACACA_site8077]”, “ACAGATGATCAAAATTGTACAGAGTTATATTATATT [XGTACX_site4642]” is lower in “gcPBM binding intensity (ln)” value: 7.15 for the first, 6.39 for the second.

Compared with “TTATTTAAAAATAGCACACATTATATATATATATAT [CACACA_site5556]”, “CTTATACAAAAAAAAAGTACATAACATAATAAGAAT [XGTACX_site6782]” is lower in “gcPBM binding intensity (ln)” value: 9.07 for the first, 6.97 for the second.

Compared with “GCTTAGTTATATAACTGTACTATTTTTATTTATATG [XGTACX_site884]”, “CTCATAGTTGGGTGCACACAAAAAATTAAAAAAATA [CACACA_site3032]” is higher in “gcPBM binding intensity (ln)” value: 6.54 for the first, 10.3 for the second.

First: AATAAGATAAGGAAAAGTACTTATAATTAAACTAAT [XGTACX_site1850]
Second: AAATATAAGTAAATAAATAAATATATAAATATATAA [TGCATGCA_negctrl_site441]
The “gcPBM binding intensity (ln)” value of the first is higher: 7.84 for the first, 6.03 for the second.

Going from “AAATACATACATTAATGTACAAATAGAAACACTCTT [XGTACX_site1512]” to “ATAAAGTAAGAAGAAATAATGATTTTCATGGAAAAC [XGTACX_negctrl_site322]”, the “gcPBM binding intensity (ln)” value falls from 6.85 to 5.91.

Compared with “ATACACTAGAAAATTTTATAGTATTATTAATGTTAA [GTGCAC_negctrl_site101]”, “TTTTTATTCGTTAAATGTACAAAAAAAATGTTATAT [XGTACX_site2804]” is higher in “gcPBM binding intensity (ln)” value: 6.22 for the first, 6.45 for the second.

First: ATACCTCAAATTGATACACACAAAAAAAGTAAATTA [CACACA_site3134]
Second: TTTTACTATACTTATGCACACAAGATAAATACATAT [CACACA_site5619]
The “gcPBM binding intensity (ln)” value of the first is lower: 6.5 for the first, 10.3 for the second.

Going from “CTATTTTAATATTTTACACACCATGTAAAATATATA [CACACA_site5732]” to “TATCATCTTAATATCGTGCACATTTATAGAACGAAA [GTGCAC_site9992]”, the “gcPBM binding intensity (ln)” value rises from 6.57 to 9.74.

Going from “TATTATTCCATGTGAAGTACAGAAATATAAATAAAT [XGTACX_site5106]” to “CTTTTAAAAAAATTCATGCACACGAAATAAAAAGCA [CACACA_site929]”, the “gcPBM binding intensity (ln)” value rises from 5.96 to 8.99.

Going from “TTTATTTTTCATTGGGGTACACAAGTTTATTTTATT [XGTACX_site4263]” to “CCATAATTATATGCCAGTACATATTTGTAACAAAAA [XGTACX_site851]”, the “gcPBM binding intensity (ln)” value falls from 7.23 to 6.7.

Compared with “TAAGTAATAGTTTGTGCACACTCAAGTATATCATAT [CACACA_site4035]”, “CAAAATATTTTTATAACACACATATATAGAATGTGC [CACACA_site1145]” is lower in “gcPBM binding intensity (ln)” value: 11.1 for the first, 6.34 for the second.

First: TATTTTTTTTCGTAATGTACATAAAAAATGCAAAAA [XGTACX_site8491]
Second: TATATATATATAACAACACACACAGATCATAAAACT [CACACA_site8670]
The “gcPBM binding intensity (ln)” value of the first is lower: 7.14 for the first, 8.9 for the second.

Compared with “ATTATATAATTTAATCGTACACAAATATTTGTTAGT [XGTACX_site5913]”, “AGTATTCATAAAAATACACACATGGAAAAATAAAAT [CACACA_site1454]” is higher in “gcPBM binding intensity (ln)” value: 6.79 for the first, 6.88 for the second.

Going from “AGCAAAAAAAAAAAAAAAAAAAAAATAATAAAAAAT [TGCATGCA_negctrl_site202]” to ATATATATATAATAAGTGCAAAAAAAAGAAAAAAAT, the “gcPBM binding intensity (ln)” value rises from 6.01 to 9.3.

Compared with “GTTTTCTAGTGGGGGTGTACATATTTATATTTAATA [XGTACX_site8378]”, TTTTTTTTTTTTGAGGTGCATATATCAGATCAATAT is lower in “gcPBM binding intensity (ln)” value: 9.48 for the first, 9.21 for the second.

Going from “CATATATTAATATGTACACACATTAATAAAAAAAAA [CACACA_site7504]” to “TCAAGAGTTATATAAACACACATACATACAGACATA [CACACA_site6998]”, the “gcPBM binding intensity (ln)” value rises from 6.24 to 6.88.

Going from “AAAAAAAAAAAAAAAAAAAAAAAAAAAAAAAAAAAG [CACACA_negctrl_site292]” to “ATTGTGGATATTCTTACACACAAATTTATTTATAAA [CACACA_site7267]”, the “gcPBM binding intensity (ln)” value falls from 7.6 to 6.05.

Going from “TAAGAAATTGAGCGCACACATACATCTGTGGGATGG [CACACA_site1548]” to ATGTAAATATTTTGTATGCACTTTGATGCATCTTTT, the “gcPBM binding intensity (ln)” value rises from 6.81 to 8.08.

Going from “TTTTTTTCTTCTTTTCTCTTAAAAATATTGAATATT [CACACA_negctrl_site1762]” to “AAATAAAATAAAATACGTACCTATTGTGCGTATTAA [XGTACX_site2912]”, the “gcPBM binding intensity (ln)” value rises from 6.28 to 7.52.

First: ATTTTAACTCCCCTTAATCTATTGTATATATATATA [CACACA_negctrl_site208]
Second: AATAATTTCCAAAAATGTACATATATTTACATATAT [XGTACX_site1790]
The “gcPBM binding intensity (ln)” value of the first is higher: 8.84 for the first, 6.32 for the second.
